32 compounds from publication PMC5681660, “Reduced hepatitis B and D viral entry using clinically applied drugs as novel inhibitors of the bile acid transporter NTCP” (Scientific Reports, 2017) can be followed below.

Counter-ions that a name gives are not always drawn. Like-named read-outs stand apart in the source and are kept apart here.

For experiment [1], the target named is T1, human NTCP (Homo sapiens, UniProt Q14973).
T1 sequence (Q14973 1-349): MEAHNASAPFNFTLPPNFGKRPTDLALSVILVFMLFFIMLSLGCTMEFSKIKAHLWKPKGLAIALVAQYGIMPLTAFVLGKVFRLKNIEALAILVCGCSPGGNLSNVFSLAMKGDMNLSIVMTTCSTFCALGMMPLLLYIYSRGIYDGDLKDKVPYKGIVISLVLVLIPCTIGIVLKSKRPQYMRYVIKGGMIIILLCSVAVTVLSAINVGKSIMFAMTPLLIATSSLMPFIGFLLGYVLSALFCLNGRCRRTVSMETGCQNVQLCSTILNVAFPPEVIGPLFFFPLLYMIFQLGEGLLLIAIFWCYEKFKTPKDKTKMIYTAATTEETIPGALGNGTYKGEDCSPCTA
Kind of experiment: Screening taurocholate uptake assay (96-well, [14C]taurocholate, 10 µM drug). Conditions: for remaining activity at 10 µM: 10 min, read-out: %NTCP activity.

Experiment [2] addresses T1, human NTCP. Kind of experiment: Screening fluorescent competitive Myrcludex B-FITC binding assay (96-well, 10 µM drug).
Setting [3] is: screen, 10 µM drug, [14C]taurocholate uptake.
[4] abbreviates: screen, 10 µM drug, Myrcludex B-FITC binding.
Setting [5] is: 0.5 h, read-out: %NTCP binding, screen, 10 µM drug, Myrcludex B-FITC binding.
The mark [6] stands for this setting: Prestwick library screen, 10 µM drug, Myrcludex B-FITC binding.

`O=C1CN(/N=C/c2ccc(-c3ccc([N+](=O)[O-])cc3)o2)C(=O)[N-]1.[Na+]` [Dantrolene sodium salt]: the “%NTCP activity” value in experiment [1] (setting [3]) is on record as 60.5703%. Further, the “%NTCP binding” value in experiment [2] (setting [4]) is reported as 68.782%.

`COc1cccc2c1C(=O)c1c(O)c3c(c(O)c1C2=O)C[C@@](O)(C(C)=O)C[C@@H]3O[C@H]1C[C@H](N)[C@H](O)[C@H](C)O1` [Daunorubicin hydrochloride]: the remaining activity at 10 µM in experiment [1] was 53.6%; in experiment [2] (0.5 h, read-out: %NTCP binding, Prestwick library screen, Myrcludex B-FITC binding, 10 µM drug) it was 97.8%.

With `N=C(N)N1CCc2ccccc2C1` [Debrisoquin sulfate], the remaining activity at 10 µM worked out at 112% in experiment [1] and 70.8% in experiment [2] (0.5 h, read-out: %NTCP binding).

On to `C[N+](C)(C)CCCCCCCCCC[N+](C)(C)C` [Decamethonium bromide], for which the remaining activity at 10 µM in experiment [1] was 56.7%; in experiment [2] (setting [5]), 104%.

For `CC(=O)OCC(=O)[C@@]12N=C(C)O[C@@H]1C[C@H]1[C@@H]3CCC4=CC(=O)C=C[C@]4(C)[C@H]3[C@@H](O)C[C@@]12C` [Deflazacort], the remaining activity at 10 µM in experiment [1] was found to be 97.8%; in experiment [2] (0.5 h, read-out: %NTCP binding), 108%.

Take `C[C@H](CCC(=O)O)[C@H]1CC[C@H]2[C@@H]3C(=O)C[C@@H]4CC(=O)CC[C@]4(C)[C@H]3CC(=O)[C@]12C` [Dehydrocholic acid]: the remaining activity at 10 µM stood at 70.1% in experiment [1] and 85.6% in experiment [2] (0.5 h, read-out: %NTCP binding).

Turning to `CC(=O)O[C@H]1CC[C@@]2(C)C(=CC[C@@H]3[C@@H]2CC[C@]2(C)C(=O)CC[C@@H]32)C1` [Dehydroisoandosterone 3-acetate], the “%NTCP activity” value in experiment [1] is recorded as 52.8978%. In experiment [2] (setting [4]), the “%NTCP binding” value is on record as 87.5215%.

Consider `CN(CCCCCCCCCCN(C)C(=O)Oc1cccc([N+](C)(C)C)c1)C(=O)Oc1cccc([N+](C)(C)C)c1` [Demecarium bromide], for which the remaining activity at 10 µM in experiment [1] came out at 125%; in experiment [2] (0.5 h, read-out: %NTCP binding, Prestwick library screen, 10 µM drug, Myrcludex B-FITC binding), 86.4%.

As to `CN(C)[C@@H]1C(O)=C(C(N)=O)C(=O)[C@@]2(O)C(O)=C3C(=O)c4c(O)ccc(Cl)c4[C@@H](O)[C@H]3C[C@@H]12` [Demeclocycline hydrochloride], the remaining activity at 10 µM worked out at 62% in experiment [1] and 89% in experiment [2] (0.5 h, read-out: %NTCP binding).

Take `CC[N+](CC)(CC(=O)Nc1c(C)cccc1C)Cc1ccccc1` [Denatonium benzoate]: the remaining activity at 10 µM worked out at 80.1% in experiment [1] and 115% in experiment [2] (0.5 h, read-out: %NTCP binding).

For `CN1[C@@H]2CC[C@H]1C[C@@H](OC1c3ccccc3CCc3ccccc31)C2.O=C(O)CC(O)(CC(=O)O)C(=O)O` [Deptropine citrate], in experiment [1], the “%NTCP activity” value is recorded as 115.378%. Moreover, the “%NTCP binding” value in experiment [2] (setting [6]) turned out to be 87.3815%.

On to `Cc1cc(N)c2ccccc2[n+]1CCCCCCCCCC[n+]1c(C)cc(N)c2ccccc21` [Dequalinium dichloride], for which the remaining activity at 10 µM in experiment [1] amounted to 73%; in experiment [2] (0.5 h, read-out: %NTCP binding), 81.2%.

For `CNCCCN1c2ccccc2CCc2ccccc21` [Desipramine hydrochloride], the remaining activity at 10 µM in experiment [1] was 63.5%; in experiment [2] (0.5 h, read-out: %NTCP binding), 75.9%.

`CC1(C)O[C@@H]2C[C@H]3[C@@H]4CCC5=CC(=O)C=C[C@]5(C)[C@H]4[C@@H](O)C[C@]3(C)[C@]2(C(=O)CO)O1` [Desonide]: the remaining activity at 10 µM stood at 112% in experiment [1] and 58.9% in experiment [2] (0.5 h, read-out: %NTCP binding).

For the compound `CC(=O)OCC(=O)[C@@]1(O)[C@H](C)C[C@H]2[C@@H]3CCC4=CC(=O)C=C[C@]4(C)[C@@]3(F)[C@@H](O)C[C@@]21C` [Dexamethasone acetate], the remaining activity at 10 µM in experiment [1] turned out to be 88.6%; in experiment [2] (0.5 h, read-out: %NTCP binding), 75%.

On to `CCN[C@@H](C)Cc1cccc(C(F)(F)F)c1` [Dexfenfluramine hydrochloride], for which the remaining activity at 10 µM in experiment [1] turned out to be 119%; in experiment [2] (setting [5]) it was 74.6%.

Consider `CC(=O)Nc1c(I)c(NC(C)=O)c(I)c(C(=O)O)c1I.O.O` [Diatrizoic acid dihydrate], for which the “%NTCP activity” value in experiment [1] (Prestwick library screen, [14C]taurocholate uptake, 10 µM drug) amounted to 93.4776%. Besides, the “%NTCP binding” value in experiment [2] (Prestwick library screen, Myrcludex B-FITC binding, 10 µM drug) is on record as 85.5063%.

Consider `CC1=NS(=O)(=O)c2cc(Cl)ccc2N1` [Diazoxide], for which the remaining activity at 10 µM in experiment [1] was found to be 23%; in experiment [2] (0.5 h, read-out: %NTCP binding), 73.9%.

Take `CCCCOc1cc(C(=O)NCCN(CC)CC)c2ccccc2n1` [Dibucaine]: the remaining activity at 10 µM in experiment [1] was 113%; in experiment [2] (0.5 h, read-out: %NTCP binding), 116%.

As for `NS(=O)(=O)c1cc(Cl)c(Cl)c(S(N)(=O)=O)c1` [Dichlorphenamide], the remaining activity at 10 µM is 110% in experiment [1] and 107% in experiment [2] (0.5 h, read-out: %NTCP binding).

For the compound `O=C(O)Cc1ccccc1Nc1c(Cl)cccc1Cl` [Diclofenac sodium], the remaining activity at 10 µM came to 106% in experiment [1] and 91.9% in experiment [2] (0.5 h, read-out: %NTCP binding).

Consider `Cc1onc(-c2c(Cl)cccc2Cl)c1C(=O)N[C@@H]1C(=O)N2[C@@H]1SC(C)(C)[C@@H]2C(=O)[O-].O.[Na+]` [Dicloxacillin sodium salt hydrate], for which the “%NTCP activity” value in experiment [1] (Prestwick library screen, 10 µM drug, [14C]taurocholate uptake) came to 37.3679%. Besides, the “%NTCP binding” value in experiment [2] (setting [6]) stood at 48.1821%.

Turning to `O=c1oc2ccccc2c(O)c1Cc1c(O)c2ccccc2oc1=O` [Dicumarol], the remaining activity at 10 µM came out at 41.6% in experiment [1] and 120% in experiment [2] (0.5 h, read-out: %NTCP binding).

`O=c1[nH]cnc2c1ncn2[C@H]1CC[C@@H](CO)O1` [Didanosine]: the remaining activity at 10 µM in experiment [1] came to 98.1%; in experiment [2] (0.5 h, read-out: %NTCP binding), 93.9%.

For the compound `C/C=C(/C(=C/C)c1ccc(O)cc1)c1ccc(O)cc1` [Dienestrol], the remaining activity at 10 µM turned out to be 92.5% in experiment [1] and 51.3% in experiment [2] (0.5 h, read-out: %NTCP binding).

On to `CCN(CC)C(=O)N1CCN(C)CC1` [Diethylcarbamazine citrate], for which the remaining activity at 10 µM in experiment [1] is 26.2%; in experiment [2] (0.5 h, read-out: %NTCP binding), 70.4%.

`CC(=O)OCC(=O)[C@@]1(OC(C)=O)[C@@H](C)C[C@H]2[C@@H]3C[C@H](F)C4=CC(=O)C=C[C@]4(C)[C@@]3(F)[C@@H](O)C[C@@]21C` [Diflorasone Diacetate]: the remaining activity at 10 µM in experiment [1] turned out to be 123%; in experiment [2] (0.5 h, read-out: %NTCP binding) it was 75.1%.

For `C[C@]12CC[C@H](O)C[C@H]1CC[C@@H]1[C@@H]2CC[C@]2(C)[C@@H](C3=CC(=O)OC3)CC[C@]12O` [Digitoxigenin], the remaining activity at 10 µM is 36.4% in experiment [1] and 58% in experiment [2] (0.5 h, read-out: %NTCP binding).

For `C[C@]12CC[C@H](O)C[C@H]1CC[C@@H]1[C@@H]2C[C@@H](O)[C@]2(C)[C@@H](C3=CC(=O)OC3)CC[C@]12O` [Digoxigenin], the remaining activity at 10 µM in experiment [1] turned out to be 66.9%; in experiment [2] (setting [5]), 90%.

Take `C[C@H]1O[C@@H](O[C@H]2[C@@H](O)C[C@H](O[C@H]3[C@@H](O)C[C@H](O[C@H]4CC[C@@]5(C)[C@H](CC[C@@H]6[C@@H]5C[C@@H](O)[C@]5(C)[C@@H](C7=CC(=O)OC7)CC[C@]65O)C4)O[C@@H]3C)O[C@@H]2C)C[C@H](O)[C@@H]1O` [Digoxin]: the remaining activity at 10 µM in experiment [1] turned out to be 37%; in experiment [2] (setting [5]) it was 92.3%.

As to `CN1C[C@H](C(=O)N[C@]2(C)O[C@@]3(O)[C@@H]4CCCN4C(=O)[C@H](Cc4ccccc4)N3C2=O)C[C@@H]2c3cccc4[nH]cc(c34)C[C@H]21.CN1C[C@H](C(=O)N[C@]2(C)O[C@@]3(O)[C@@H]4CCCN4C(=O)[C@H](Cc4ccccc4)N3C2=O)C[C@@H]2c3cccc4[nH]cc(c34)C[C@H]21.O=C(O)C(O)C(O)C(=O)O` [Dihydroergotamine tartrate], in experiment [1] (setting [3]), the “%NTCP activity” value is 90.1719%. For the same compound, in experiment [2] (setting [4]), the “%NTCP binding” value is 72.4359%.

For the compound `CN(C(=O)C(Cl)Cl)c1ccc(OC(=O)c2ccco2)cc1` [Diloxanide furoate], the remaining activity at 10 µM in experiment [1] worked out at 74.3%; in experiment [2] (0.5 h, read-out: %NTCP binding) it was 126%.
